Measurements: ChEMBL document CHEMBL4888484, “Replenishing the malaria drug discovery pipeline: Screening and hit evaluation of the MMV Hit Generation Library 1 (HGL1) against asexual blood stage Plasmodium falciparum ,using a nano luciferase reporter read-out” (2022)
In all, about 150,000 compounds went through this assay and about 540 (0.36%) showed an effect of 50% or more. Some of the results follow.

What follows are compounds tested on Plasmodium falciparum (assay: Primary screen in NF54 nanoGlo assay, in single point, at 2uM, 72h; a lower Z score goes with more inhibition). Details: timepoint 72 hour.
Assay type: functional, Erythrocyte

SMILES	% Inhibition	Z score
CC(=O)N1CCc2cc(Br)c(S(=O)(=O)CCC(=O)N3CCC(C)CC3)cc21	-11%	1.04
COc1ncc(NC(=O)c2snnc2C)cn1	-9%	1.7
Cc1cc(COCC(=O)N2Cc3ccccc3CO2)no1	3%	-0.6
Cc1ccc(-c2nc3cc(C)ccn3c2NC(=O)C2CCCCC2)cc1	1%	-0.2
CC(C)CC(=O)Nc1ccc(N2CCN(C(=O)c3cccc(F)c3)CC2)c(C(=O)NCc2ccc(F)cc2)c1	-17%	1.48
CC1CN(CCCCC2CCOCC2)CCC1O (configuration not stated)	-11%	1.13
CCCn1nc(C)c(Cn2cc(-c3nccn3C)nn2)c1C	-12%	2.29
O=c1ccn(-c2ccccc2)nc1-c1nc(-c2ccccn2)no1	8%	-1.23
CCCn1nc(C)c(CN2C[C@H](C)OC3(CCC3)C2)c1C	-8%	1.57
C[C@H]1CN(C)CCN1C(=O)c1ccc(Cn2cncn2)cc1	-4%	0.49
Cc1c(S(=O)(=O)Nc2ccccn2)cc(-c2nc(-c3ccc(Cl)cc3)cs2)n1C	4%	-0.44
COCCn1cncc1CNC(=O)[C@@H]1CCc2ccccc21	-11%	1.85
O=C(NCc1ccsc1)c1cccs1	0%	-0.06
CCc1cnc(C)nc1N1CCC2(CCC(=O)N(CCOC)C2)CC1	6%	-0.87
O=C(c1ccccc1C1CCC1)N1CCN2C(=O)NC[C@H]2C1	0%	-0.01
Cc1nc2sccn2c1-c1noc([C@H]2OCC[C@H]2C(C)C)n1	-5%	0.61
O=S(=O)(CC12CCC(CC1)C2)N1CCCC[C@H]1c1nnc(C2CCC2)o1	-19%	2.78
Cc1cc2ccccc2n1CC(=O)NC1CCN(Cc2ccccc2)CC1	-15%	2.18
Cc1cnn(CC(=O)Nc2ccc3oc(-c4cc(F)ccc4Br)nc3c2)c1	-17%	2.23
CC(C)[C@@H]1CN(C)CCN1C(=O)C1=CCCC1	2%	-0.16
CC1CN(Cc2nnc(-c3ccco3)o2)C(C)CO1 (configuration not stated)	2%	-0.33
CC(N[C@@H](C)CO)c1cn(C2CN(C(=O)OC(C)(C)C)C2)nn1 (some centres not stated)	-2%	0.25

SMILES	% Inhibition	Z score
COc1ccc(CNC(=O)COc2ncnc3oc(C)c(C)c23)c(OC)c1	0%	0.01
CCn1cc(S(=O)(=O)N2CCc3n[nH]c(=O)n3CC2)cn1	0%	-0.05
C[C@@H](c1ccc(-c2ccc(-n3ccnc3)nn2)cc1)N1CCCCC1	-2%	0.36
CC(C)c1ccc2occ(C(=O)N3C[C@@H]4CCC[C@]4(C(N)=O)C3)c2c1	2%	-0.33
O=C(C1CCCC1)N1CCN(c2ccccn2)CC1	-3%	0.54
Cc1cccc(NS(=O)(=O)c2cc(C(=O)NC3CC4CCC3C4)ccc2Cl)c1C (configuration not stated)	-14%	1.74
CCC1CCC(N(C)C(=O)c2ccc3ccccc3n2)CC1 (configuration not stated)	0%	0.01
COc1ccc2cc1OCC(=O)N[C@@H](C)C(=O)N(C)CCCCN(C/C=C/c1ccc(F)cc1)CCCNC(=O)CC2	-16%	1.98
CC(C)(C)Oc1cc(C(=O)N(CC2CC2)c2cccnc2)ccn1	-9%	0.77
CC(C)CNC(=O)c1coc(CN(Cc2ccc3c(c2)OCO3)Cc2ccccc2C(F)(F)F)n1	-9%	0.87
CCc1nn(C)cc1NC(=O)c1ccc(C(C)C)nc1	6%	-0.81
CC(C)Oc1ccccc1CN[C@H]1CCN(C2CC2)C1	9%	-1.06
CC1OC(C)C(c2nc(-c3ccc(C(F)F)nc3)no2)C1C (configuration not stated)	-13%	2.04
CC1CCCC(C)N1C(=O)CNc1ccccc1C(=O)NC1CC1 (configuration not stated)	2%	-0.26
COc1ccc(C(C)NC2CCC(=O)N(C)C2)cc1Cn1cccn1 (configuration not stated)	-13%	1.69
COc1ccc(Cl)cc1-c1noc(C(=O)NCCNC(=O)COc2cccc(C(F)(F)F)c2)n1	-15%	1.55
N#Cc1cccnc1N1CCOC2(CCCC2)C1	-4%	0.64
Cc1nccn1[C@@H](C)CC(=O)NCC1=CCCCC1	-7%	0.79
CNC(=O)c1ccc(N(C)CC2(O)CCCC2)nn1	-5%	0.69
Cc1cc(CN(C)C(=O)Nc2nc(C)ns2)ccn1	-8%	1.28
Cc1csc(NC(=O)C(=O)c2ccc(O)cc2)n1	-6%	0.76
Cc1cc(NC(=O)COc2ccccc2)on1	3%	-0.35

SMILES	% Inhibition	Z score
Cc1csc(NC(=O)NCCc2nnc(N)o2)n1	2%	-0.46
OCC[C@H]1CN(C/C=C/c2ccccc2)CCN1CC1CCCCC1	-8%	1.26
CN=C(NC)N[C@@H](C)c1ccc(OCC2CC2)c(F)c1	-5%	0.52
CCn1c(C)cc(C(=O)N(C)Cc2c(C)nc3ccccn23)c1C	-17%	3.38
O=C1CCCCCN1CC(=O)N1CCC[C@H](n2cccn2)C1	-4%	0.51
CCCCCS(=O)(=O)N1CC[C@H](CO)C1	-2%	0.24
COc1ccccc1N1CCN2c3ccc(C(F)(F)F)cc3CC(C(=O)NC3CCCCC3)C2C1 (configuration not stated)	-16%	1.79
Cn1cc(S(=O)(=O)NCC(=O)NC2CCCCC2)cn1	-4%	0.52
Cc1ccc(CN(C)C2CCN(CCn3cccn3)CC2)s1	-12%	0.98
CC(C)CN(Cc1cccnc1)C1CN(C(=O)CCc2nc3ccccc3s2)C1	-2%	0.31
CC1(C)CN(C(=O)CCCN2CCCC2=O)CC[C@]1(C)O	1%	-0.21
O=C(c1[nH]nc2c1CCC2)N1CCN(S(=O)(=O)c2ccc(Cl)cc2)CC1	34%	-3.85
O=C(CCc1cn[nH]c1)NC[C@H]1CC[C@H](CO)CC1	-9%	1.07
O=C(c1coc2ccccc12)N1CCN(C2CCCCC2)CC1	3%	-0.45
CC1CC(N(C(=O)c2ccc(C(C)(C)C)cc2)c2ccccc2)c2ccccc2N1 (configuration not stated)	3%	-0.33
O=C(CN(CCc1cccc(F)c1)C1CC1)N1CCOCC1	-2%	0.31
O=C(Nc1cc(F)c(F)c(F)c1)[C@H](Cc1ccccc1)NC(=O)N1CCOCC1	-3%	0.39
CCOc1ccccc1NC(=O)[C@H]1CCCN(C(=O)c2ccc(OC)c3ccccc23)C1	-14%	2.67
COc1ccc(CN(Cc2ccco2)C(=O)c2ccc(Cl)cc2)cc1OS(=O)(=O)c1cccc(C(F)(F)F)c1	-6%	0.6
Cc1cnc(C(=O)N2CCC[C@H](c3nc(C4CCOCC4)no3)C2)cn1	-4%	0.66
COCc1ccc(S(=O)(=O)Nc2nccc(C3CC3)n2)cc1	-4%	0.36
CC(c1cn[nH]c1)N1C(=O)C2CC3CCCCC3N2C1=O (configuration not stated)	-2%	0.42

SMILES	% Inhibition	Z score
COCc1nc(C)cc(NC[C@@H](CO)Cc2ccncc2Cl)n1	1%	-0.1
COc1ccc(-c2ccc(C(=O)Nc3ccc(-c4nc5ncccc5o4)cc3)o2)cc1Cl	-21%	3.05
O=C(NC[C@@H]1CCCN1)Nc1cc(F)cc(Cl)c1	3%	-0.6
FC(F)(F)c1cccc(C2(c3nnc(-c4ccccc4)o3)CCOCC2)c1	-9%	1.56
Cc1[nH]nc(C(N)=O)c1NC(=O)CCc1ccc(Cl)s1	1%	-0.11
O=C(c1nnc(-c2csc(S(=O)(=O)N3CCCC3)c2)o1)N1CCCCC1	-1%	0.13
Cc1c(-c2ccc(F)cc2)nn(Cn2cc(Cl)cn2)c1-c1ccc(F)cc1	33%	-3.68
Cc1csc(CCNC(=O)c2c(C)c(C)n[nH]c2=O)n1	-4%	0.68
CN(C)S(=O)(=O)N1CCCC[C@H](NC(=O)c2ccsc2)C1	-9%	0.9
C=CCN1C[C@@H](C(=O)N2CCc3[nH]c(-c4ccccc4)nc3C2)CC1=O	-3%	0.62
CC(C)[C@H](C)NC(=O)N(C)CCCc1nccn1C	-7%	1.33
O=C(NCCN1CCCCC1)c1ccc(OCc2nnc(C(=O)Nc3ccccc3F)s2)cc1	-12%	1.09
O=C(C1CCCC1)N1CCC2(CC1)NCC(=O)N2Cc1cccc(C(F)(F)F)c1	-6%	0.68
CCOC(=O)c1[nH]cnc1C(F)(F)F	-3%	0.41
O=C(Nc1cc(-c2ccccn2)no1)C1CCCC1	-18%	1.69
CCc1noc(C(C)N(C)CC2CCN(Cc3ccc(C)s3)C2)n1 (configuration not stated)	3%	-0.52
CN1CCCC[C@@H]1CCC(=O)N1CC(OCc2ccccc2)C1	-8%	1.48
O=C(Cc1cccnc1)N1CCC(F)(C(=O)N2CCCC2)CC1	-4%	0.57
CC(=O)Nc1ccc(C(=O)OCC2CCCCC2)cc1	-7%	1.15
CN1CCC[C@H](CCC(=O)N(C)CCCc2cnn(C)c2)C1	-6%	1.11
